Laboratory results taken from the supplement of paper PMC9151546.
Where a name gives a salt, the structure may show the parent alone. Most values come without repeats; read them as rough.

Legend:
CHO-K1 [1] = assay: relative survival (nuclei to bead ratio vs DMSO control) (% of vehicle control); higher = more surviving cells
Description: (§1)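 Flow-cytometric in vitro micronucleus assay (Litron MicroFlow) in CHO-K1 cells in 96-well plates, 19 concentrations (4.5-200 µM, n=1 per concentration). Without S9, cells were exposed for 24 h and sampled at 48 h. With Aroclor 1254-induced rat liver S9, cells were exposed for 3-4 h and sampled at 27-28 h. Read-outs are %MN and %hypodiploid nuclei relative to nucleated events, and relative survival as the nuclei-to-bead ratio versus the 1% DMSO vehicle control (x100).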

CHO-K1 [2] = assay: hypodiploid nuclei frequency (% of nucleated events); higher = more hypodiploid events (aneugenic)
Description: as §1

CHO-K1 [3] = assay: micronucleus frequency (% of nucleated events); higher = more micronuclei (genotoxic)
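Wherever hypodiploid nuclei frequency (% of nucleated events) is given: hypodiploid nuclei gated on a flow cytometer with 488 nm excitation after SYTOX Green staining, cultures at 37 °C, positive controls vinblastine without S9 and cyclophosphamide with S9.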
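Wherever micronucleus frequency (% of nucleated events) is given: cells lysed with nuclei stained by SYTOX Green, then micronucleus-gated events counted against nucleated events by flow cytometry with 488 nm excitation.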
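Wherever relative survival (nuclei to bead ratio vs DMSO control) is given: Lysed-cell nuclei stained with SYTOX Green and counted against counting beads by flow cytometry at 488 nm excitation, with vinblastine (no S9) and cyclophosphamide (plus S9) as positive controls.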

CCCCc1oc2ccccc2c1C(=O)c1cc(I)c(OCCN(CC)CC)c(I)c1 [Amiodarone hydrochloride]
Conditions	hypodiploid nuclei frequency, CHO-K1 [2] [%]	micronucleus frequency, CHO-K1 [3] [%]	relative survival, CHO-K1 [1]
concentration: 3.4 (µM), S9 metabolic activation: with S9, exposure time: 3-4 hours	0.52	1.66	89.8
concentration: 3.4 (µM), S9 metabolic activation: without S9, exposure time: 24 hours	66.8	3.1	60.2
concentration: 4.25 (µM), S9 metabolic activation: with S9, exposure time: 3-4 hours	0.34	2.22	90
concentration: 4.25 (µM), S9 metabolic activation: without S9, exposure time: 24 hours	5.88	2.12	89.8
concentration: 5.31 (µM), S9 metabolic activation: with S9, exposure time: 3-4 hours	0.56	2.1	92.5
concentration: 5.31 (µM), S9 metabolic activation: without S9, exposure time: 24 hours	1.02	2.4	104
concentration: 6.64 (µM), S9 metabolic activation: with S9, exposure time: 3-4 hours	0.76	1.54	88
concentration: 6.64 (µM), S9 metabolic activation: without S9, exposure time: 24 hours	0.94	2.32	90.1
concentration: 8.3 (µM), S9 metabolic activation: with S9, exposure time: 3-4 hours	0.6	1.88	102
concentration: 8.3 (µM), S9 metabolic activation: without S9, exposure time: 24 hours	0.98	2.36	83.9
concentration: 10.4 (µM), S9 metabolic activation: with S9, exposure time: 3-4 hours	0.48	1.62	97.2
concentration: 10.4 (µM), S9 metabolic activation: without S9, exposure time: 24 hours	0.94	1.6	109
concentration: 13 (µM), S9 metabolic activation: with S9, exposure time: 3-4 hours	0.56	1.98	93
concentration: 13 (µM), S9 metabolic activation: without S9, exposure time: 24 hours	1.32	1.6	96.5
concentration: 16.2 (µM), S9 metabolic activation: with S9, exposure time: 3-4 hours	1.04	2.26	92
concentration: 16.2 (µM), S9 metabolic activation: without S9, exposure time: 24 hours	0.94	2.42	77.9
concentration: 20.3 (µM), S9 metabolic activation: with S9, exposure time: 3-4 hours	2.78	3.1	88.4
concentration: 20.3 (µM), S9 metabolic activation: without S9, exposure time: 24 hours	1.3	2.34	87.5
concentration: 25.3 (µM), S9 metabolic activation: with S9, exposure time: 3-4 hours	3.32	3.8	87.7
concentration: 25.3 (µM), S9 metabolic activation: without S9, exposure time: 24 hours	0.82	1.82	67.2
concentration: 31.7 (µM), S9 metabolic activation: with S9, exposure time: 3-4 hours	3.6	4.26	71.1
concentration: 31.7 (µM), S9 metabolic activation: without S9, exposure time: 24 hours	0.78	1.58	68.1
concentration: 39.6 (µM), S9 metabolic activation: with S9, exposure time: 3-4 hours	7.84	6.08	56.8
concentration: 39.6 (µM), S9 metabolic activation: without S9, exposure time: 24 hours	–	–	34.8
concentration: 49.5 (µM), S9 metabolic activation: with S9, exposure time: 3-4 hours	10.4	8.16	45.2
concentration: 49.5 (µM), S9 metabolic activation: without S9, exposure time: 24 hours	–	–	22.7
concentration: 61.8 (µM), S9 metabolic activation: with S9, exposure time: 3-4 hours	–	–	38.8
concentration: 61.8 (µM), S9 metabolic activation: without S9, exposure time: 24 hours	–	–	2.66
concentration: 77.3 (µM), S9 metabolic activation: with S9, exposure time: 3-4 hours	–	–	31.8
concentration: 77.3 (µM), S9 metabolic activation: without S9, exposure time: 24 hours	–	–	0.01
concentration: 96.6 (µM), S9 metabolic activation: with S9, exposure time: 3-4 hours	–	–	19
concentration: 96.6 (µM), S9 metabolic activation: without S9, exposure time: 24 hours	–	–	0.02
concentration: 121 (µM), S9 metabolic activation: with S9, exposure time: 3-4 hours	–	–	6.42
concentration: 121 (µM), S9 metabolic activation: without S9, exposure time: 24 hours	–	–	0.02
concentration: 151 (µM), S9 metabolic activation: without S9, exposure time: 24 hours	–	–	0.01

NC(=O)N1c2ccccc2C=Cc2ccccc21 [Carbamazepine]
Conditions	hypodiploid nuclei frequency, CHO-K1 [2] [%]	micronucleus frequency, CHO-K1 [3] [%]	relative survival, CHO-K1 [1]
concentration: 4.5 (µM), S9 metabolic activation: with S9, exposure time: 3-4 hours	0.32	2.36	132
concentration: 4.5 (µM), S9 metabolic activation: without S9, exposure time: 24 hours	0.52	1.54	74.3
concentration: 5.63 (µM), S9 metabolic activation: with S9, exposure time: 3-4 hours	0.22	1.8	116
concentration: 5.63 (µM), S9 metabolic activation: without S9, exposure time: 24 hours	0.7	1.4	77.2
concentration: 7.04 (µM), S9 metabolic activation: with S9, exposure time: 3-4 hours	0.24	2.16	116
concentration: 7.04 (µM), S9 metabolic activation: without S9, exposure time: 24 hours	0.42	1.08	95.8
concentration: 8.8 (µM), S9 metabolic activation: with S9, exposure time: 3-4 hours	0.16	1.6	122
concentration: 8.8 (µM), S9 metabolic activation: without S9, exposure time: 24 hours	0.54	2.06	98.2
concentration: 11 (µM), S9 metabolic activation: with S9, exposure time: 3-4 hours	0.24	1.58	122
concentration: 11 (µM), S9 metabolic activation: without S9, exposure time: 24 hours	0.74	1.4	84.4
concentration: 13.7 (µM), S9 metabolic activation: with S9, exposure time: 3-4 hours	0.28	1.74	113
concentration: 13.7 (µM), S9 metabolic activation: without S9, exposure time: 24 hours	0.7	1.5	102
concentration: 17.2 (µM), S9 metabolic activation: with S9, exposure time: 3-4 hours	0.26	1.74	109
concentration: 17.2 (µM), S9 metabolic activation: without S9, exposure time: 24 hours	0.6	1.42	73.7
concentration: 21.5 (µM), S9 metabolic activation: with S9, exposure time: 3-4 hours	0.3	1.28	113
concentration: 21.5 (µM), S9 metabolic activation: without S9, exposure time: 24 hours	0.56	1.52	88.9
concentration: 26.8 (µM), S9 metabolic activation: with S9, exposure time: 3-4 hours	0.28	1.98	165
concentration: 26.8 (µM), S9 metabolic activation: without S9, exposure time: 24 hours	0.48	1.88	87
concentration: 33.6 (µM), S9 metabolic activation: with S9, exposure time: 3-4 hours	0.36	2.72	134
concentration: 33.6 (µM), S9 metabolic activation: without S9, exposure time: 24 hours	0.68	1.4	117
concentration: 41.9 (µM), S9 metabolic activation: with S9, exposure time: 3-4 hours	0.28	1.62	147
concentration: 41.9 (µM), S9 metabolic activation: without S9, exposure time: 24 hours	0.58	1.04	81.3
concentration: 52.4 (µM), S9 metabolic activation: with S9, exposure time: 3-4 hours	0.32	1.78	133
concentration: 52.4 (µM), S9 metabolic activation: without S9, exposure time: 24 hours	0.5	1.16	89.3
concentration: 65.5 (µM), S9 metabolic activation: with S9, exposure time: 3-4 hours	0.3	2.14	125
concentration: 65.5 (µM), S9 metabolic activation: without S9, exposure time: 24 hours	0.72	1.72	119
concentration: 81.9 (µM), S9 metabolic activation: with S9, exposure time: 3-4 hours	0.4	1.78	111
concentration: 81.9 (µM), S9 metabolic activation: without S9, exposure time: 24 hours	0.96	1.86	105
concentration: 102 (µM), S9 metabolic activation: with S9, exposure time: 3-4 hours	0.34	1.86	126
concentration: 102 (µM), S9 metabolic activation: without S9, exposure time: 24 hours	0.68	1.64	86.6
concentration: 128 (µM), S9 metabolic activation: with S9, exposure time: 3-4 hours	0.24	1.1	120
concentration: 128 (µM), S9 metabolic activation: without S9, exposure time: 24 hours	1.12	2.22	102
concentration: 160 (µM), S9 metabolic activation: with S9, exposure time: 3-4 hours	0.34	1.66	128
concentration: 160 (µM), S9 metabolic activation: without S9, exposure time: 24 hours	1.34	2.14	70.1
concentration: 200 (µM), S9 metabolic activation: with S9, exposure time: 3-4 hours	0.2	1.44	115
concentration: 200 (µM), S9 metabolic activation: without S9, exposure time: 24 hours	1.6	2.38	63.4
